Data published in PubChem BioAssay AID651820 (National Center for Advancing Translational Sciences (NCATS), 2012).
Screen size: about 340,000 compounds; about 12,000 (3.5%) were called active. Inconclusive results, whose numbers are uncertain, are shown with a selection of clear calls. Calls come from the whole dose curve; as a rule, active = well fitted inhibition curve with a large enough effect; inconclusive = small, poorly fitted or top-dose-only effect, or another doubt; inactive = no such curve, though single readings can be large or run the other way. Potencies of inconclusive entries are left out as doubtful fits.

assay: qHTS Assay for Inhibitors of Hepatitis C Virus (HCV); conditions: Huh7.5.1 HCVcc-Cre (HCVcc is cell-culture hepatitis C virus) infection, luciferase reporter, 44 h; activity change, negative = inhibition: at 41.8 µM (top of the series) unless noted
Method in brief: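 HCVcc-Cre virus at an moi near 0.5 was added right after compound to cells cultured 4 h from seeding (1,000 cells/well). Luciferase activity was determined 44 h later, 15 min after substrate addition at RT.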
% is set by controls: 0 for no effect and ±100 for the full control effect; potency is the fitted concentration of half-maximal effect; tags give direction and shape of the fitted curve.

SMILES	Potency	activity change, negative = inhibition
CC(C)OCCCn1c(=NC(=O)c2cccs2)c(C#N)cc2c(=O)n3ccccc3nc21	inconclusive [inhibitor, full curve]	
COc1ccc(C(NC(=O)CN2C(=O)NC3(CCc4ccccc43)C2=O)c2ccc(OC)cc2)cc1 (stereo not drawn)	inconclusive [inhibitor, full curve]	
Cn1nc(C(=O)Nc2cccnc2)c2ccccc2c1=O	inactive	
Cc1ccc(C(=O)c2c3ccc(C(F)(F)F)cc3nn2CCC(N)=O)cc1	inconclusive [inhibitor, single point]	
COc1cccc(OC)c1OCCNCC1COc2ccccc2O1 (stereo not drawn)	inconclusive [inhibitor, full curve, poor fit]	
CN(CCCNC(=O)C1CCC(=O)N1Cc1ccccc1Cl)c1ccccc1 (stereo not drawn)	inconclusive [inhibitor, single point]	
O=C(COc1ccc(Cl)cc1)Nc1cnn(Cc2c(Cl)cccc2Cl)c1	inconclusive [inhibitor, single point]	
CCOc1ccc(NC(=O)CN(C)C(=O)CC2OC(=O)c3ccccc32)cc1OCC (stereo not drawn)	inconclusive [inhibitor, single point]	
COCCCN(C(=O)Cc1csc(-c2cccc(Cl)c2)n1)c1c(N)n(Cc2ccccc2)c(=O)[nH]c1=O	inconclusive [inhibitor, single point]	
CC(C)NC(=S)N/N=C/c1sc(N2CCCCC2)nc1-c1cccs1	inconclusive [inhibitor, partial curve, poor fit]	
O=C1CC(Sc2nnnn2C2CCCCC2)C(=O)N1c1ccccc1 (stereo not drawn)	inconclusive [inhibitor, single point]	
Nc1cccc2c1C(=O)N(C(=O)/C=C/c1cccc(Br)c1)C2=O	inconclusive [inhibitor, single point]	
Cc1csc(=O)n1CC(=O)Nc1ccc(C(C)C)cc1	inconclusive [inhibitor, single point]	
CC1CCN(c2nc(CN3CCCCC3)nc3scc(-c4ccccc4)c23)CC1	inconclusive [inhibitor, partial curve]	
Cc1ccc(COc2ccccc2-c2cc(C(=O)N/N=C/c3cccnc3)[nH]n2)cc1	inconclusive [inhibitor, single point]	
COc1ccc(CN(C)Cc2c(O)ccc3ccccc23)cc1	inactive	
C#CCOCCOCCOCCNc1nc(N2CCN(C(=O)Cn3cc(CCCN=C(N)N)nn3)CC2)nc(N2CCN(C(=O)[C@H]([C@@H](C)CC)n3cc(CCC(=O)O)nn3)CC2)n1	inactive	
Cc1cccc(N2CCN(C(=O)COc3ccc4c(c3)CCC4)CC2C)c1 (stereo not drawn)	inactive	
CC12Cc3ccc4ccccc4c3C=C1C[N+](C)(C)C2 (stereo not drawn)	inactive	
Cc1cc(=O)oc2cc(NC(=O)C3COc4ccccc4O3)ccc12 (stereo not drawn)	inconclusive [inhibitor, partial curve]	
COc1cc(/C=N/NC(=O)C(Cc2c[nH]c3ccccc23)NC(=O)OCc2ccccc2)cc([N+](=O)[O-])c1O (stereo not drawn)	inactive	
O=C(CN1CCN(Cc2ccccc2)CC1)Nc1ccc(Cl)cn1	inconclusive [inhibitor, partial curve]	
O=C(CCl)Nc1ncc(S(=O)(=O)c2ccc([N+](=O)[O-])cc2)s1	inactive	
Cn1cnc([N+](=O)[O-])c1Nc1ccc(O)cc1	inactive	
Cc1ccc2ncnc(Nc3cccc(C(=O)O)c3)c2c1	inactive	

SMILES	Potency	activity change, negative = inhibition
CN1C2CCC1/C(=C\c1ccccc1)C(=O)/C2=C\c1ccccc1	active: 12.6 µM	
COc1cccc(N=NC2C(=O)N(C(N)=S)N=C2C)c1 (stereo not drawn)		inconclusive: -57.1% [inhibitor]
CCOc1nc(Nc2ccc(OC)cc2)nc(OCC)n1	inconclusive [inhibitor, single point]	
O=c1cc(-c2ccccc2)cc(-c2ccccc2)n1O	inconclusive [inhibitor, single point]	
C(=N\Nc1nc2ccccc2s1)/c1cccs1	inconclusive [inhibitor, single point]	
CC(C)NC(=O)c1sc2nc(-c3cccs3)cc(-c3cccs3)c2c1N	inconclusive [inhibitor, single point]	
CCN(CC)c1ccc(C(=O)NC(=S)N2CCN(Cc3ccc4c(c3)OCO4)CC2)cc1	active: 11.2 µM	
CCOC(=O)Cc1csc(NC(=S)NC(=O)CC(C)C)n1	inconclusive [inhibitor, single point]	
CCOc1ccc(C(=O)Nc2ccc(-c3cc4ccccc4oc3=O)c(C)c2)cc1[N+](=O)[O-]	inconclusive [inhibitor, partial curve]	
COc1ccc(Cl)cc1Nc1nc(NCCO)nc(N2CCCC2)n1	inconclusive [inhibitor, full curve, poor fit]	
CCOC(=O)C1CCN(Cc2nc3ccccc3c(=O)n2-c2ccc(OCC)cc2)CC1	inactive	
COc1ccccc1NS(=O)(=O)c1ccc(C(=O)NCC(c2ccc(F)cc2)N2CCOCC2)cc1 (stereo not drawn)	inactive	
CCn1c(NCc2c[nH]c3ccccc23)nc2ccccc21	inactive	
COc1ccc(CCNC(=O)Cn2nc(C(=O)O)c3ccccc3c2=O)cc1OC	inactive	
O=C(NC1CCCCCC1)c1ccco1	inactive	
O=C1c2ccccc2NC(c2ccccc2Br)N1CCCN1CCOCC1 (stereo not drawn)	inconclusive [inhibitor, single point]	
Cc1ccc(S(=O)(=O)c2ccc(NN)cc2)cc1	inactive	
CN(CC(=O)Nc1cc(C(F)(F)F)ccc1-n1cncn1)Cc1ccccc1N1CCOCC1	inconclusive [inhibitor, single point]	
C=CC[C@H](CC(=O)N(CCO)Cc1ccccc1)C(=O)N[C@H](COC(=O)[C@H](CC=C)CC(=O)OC(C)(C)C)Cc1c[nH]c2ccccc12	active: 25.1 µM	
Cc1ccc(-c2ccc(=O)n(Cc3c(F)cccc3Cl)n2)cc1	inconclusive [inhibitor, single point]	
C#CCN1C=CC(=O)[C@@H](OC(=O)Nc2ccc(Cl)cc2)[C@H]1c1ccccc1Br	active: 8.91 µM	
CC(C)(C)C(=O)CSc1ccc(S(=O)(=O)N2CCN(Cc3ccccc3)CC2)cn1	inactive	
Cc1cc(C(=O)COC(=O)c2ccc([N+](=O)[O-])o2)c(C)n1CC1CCCO1 (stereo not drawn)	inactive	
Cc1cc(N2CCCc3ccccc32)n2ncnc2n1	inactive	
Cc1ccnc(NC(=O)Nc2ccc3c(c2)OCO3)c1	inactive	

SMILES	Potency	activity change, negative = inhibition
CCOC(=O)C1CCN(C(=O)CCS(=O)(=O)c2ccc3c(c2)CC(C)N3C(=O)CC)CC1 (stereo not drawn)	inactive	
COc1cccc(NC2=NCCCCC2)c1	inactive	
COC(=O)C(C)N1C(=O)S/C(=C\c2ccc(-c3ccc(C(=O)O)cc3C)o2)C1=O (stereo not drawn)	inactive	
COc1cccc(-n2c(-c3ccc4[nH]c(C)c(C)c4c3)n[nH]c2=S)c1	inconclusive [inhibitor, single point]	
Brc1ccc(-c2cnnc(N3CCCC3)n2)cc1	inactive	
OCC1CCCCN1CC(O)COC(c1ccc(F)cc1)c1ccc(F)cc1 (stereo not drawn)	inconclusive [inhibitor, full curve, poor fit]	
CCOC(=O)C1(CCOc2ccccc2)CCN(Cc2cc(OC)cc(OC)c2)CC1	inconclusive [inhibitor, single point]	
COc1ccc(CCN(C)C(=O)Cc2ccc(-c3ccccc3)cc2)cc1OC	active: 2.51 µM	
COc1ccc(N(CC(=O)N2CCN(c3ccc(Cl)cc3)CC2)S(=O)(=O)c2c(C)n[nH]c2C)cc1	inconclusive [inhibitor, single point]	
Cc1cc(=O)[nH]c(Nc2cccc(F)c2)n1	inconclusive [inhibitor, single point]	
COc1ccccc1-c1cc(C(=O)Nc2c(F)cc(F)cc2Br)no1	inconclusive [inhibitor, single point]	
Cc1ccc(C(=O)NNC(=O)CCCCC(=O)NNC(=O)c2ccc(C)cc2)cc1	inactive	
COc1ccc2[nH]c3c(=O)n(CCCN4CCOCC4)cnc3c2c1	inactive	
CN(Cc1ccccc1)C(=O)c1ccc(NC(=O)Cc2ccc(NC(=O)C3CCCN(C(=O)C4CC4)C3)cc2)cc1 (stereo not drawn)	inconclusive [inhibitor, single point]	
CCOCc1cc(CN2CCC(CCC(=O)NC3CC3)CC2)ccc1OC	inactive	
CCCn1nc(NC(=O)c2ccncc2)c2cc3ccccc3nc21	inconclusive [inhibitor, single point]	
O=S(=O)(Nc1ccc2c(c1)OCO2)c1ccccc1	inactive	
COc1ccccc1OCc1cc(C(=O)NCc2ccc(N3CCCC3=O)cc2)no1	inconclusive [inhibitor, single point]	
O=C(CSC1=NCCS1)c1ccc(Cl)cc1	inconclusive [inhibitor, partial curve]	
O=C(CNC(=O)c1ccc(Br)cc1)N/N=C/c1ccc[nH]1	active: 2.51 µM	
CC(C)CNC(=S)N1CCC(c2nc(-c3ccc(F)cc3)no2)CC1	inconclusive [inhibitor, partial curve, poor fit]	
Cc1c(C(=O)OC(C)C(=O)N(C)Cc2ccccc2)oc2ccccc12 (stereo not drawn)	inconclusive [inhibitor, partial curve]	
Cc1nonc1OCCN1CCN(c2ccccc2[N+](=O)[O-])CC1	inactive	
